# Test results as given in publication PMC4336329 (PLoS ONE, 2015).
# Among all 310,000 compounds or so, about 14,000 (4.5%) showed an effect of 50% or more. The effect is printed as a negative number. The list shows a part of the results.
# Target: human ether-à-go-go-related gene (hERG) potassium channel (human, UniProt Q12809)
# Assay: primary screen, population patch clamp on CHO cells stably expressing hERG
# 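Further: peak tail current of the secondary pulse compared with the same well before compound.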
# human ether-à-go-go-related gene (hERG) potassium channel, sequence (Q12809 whole entry, looked up): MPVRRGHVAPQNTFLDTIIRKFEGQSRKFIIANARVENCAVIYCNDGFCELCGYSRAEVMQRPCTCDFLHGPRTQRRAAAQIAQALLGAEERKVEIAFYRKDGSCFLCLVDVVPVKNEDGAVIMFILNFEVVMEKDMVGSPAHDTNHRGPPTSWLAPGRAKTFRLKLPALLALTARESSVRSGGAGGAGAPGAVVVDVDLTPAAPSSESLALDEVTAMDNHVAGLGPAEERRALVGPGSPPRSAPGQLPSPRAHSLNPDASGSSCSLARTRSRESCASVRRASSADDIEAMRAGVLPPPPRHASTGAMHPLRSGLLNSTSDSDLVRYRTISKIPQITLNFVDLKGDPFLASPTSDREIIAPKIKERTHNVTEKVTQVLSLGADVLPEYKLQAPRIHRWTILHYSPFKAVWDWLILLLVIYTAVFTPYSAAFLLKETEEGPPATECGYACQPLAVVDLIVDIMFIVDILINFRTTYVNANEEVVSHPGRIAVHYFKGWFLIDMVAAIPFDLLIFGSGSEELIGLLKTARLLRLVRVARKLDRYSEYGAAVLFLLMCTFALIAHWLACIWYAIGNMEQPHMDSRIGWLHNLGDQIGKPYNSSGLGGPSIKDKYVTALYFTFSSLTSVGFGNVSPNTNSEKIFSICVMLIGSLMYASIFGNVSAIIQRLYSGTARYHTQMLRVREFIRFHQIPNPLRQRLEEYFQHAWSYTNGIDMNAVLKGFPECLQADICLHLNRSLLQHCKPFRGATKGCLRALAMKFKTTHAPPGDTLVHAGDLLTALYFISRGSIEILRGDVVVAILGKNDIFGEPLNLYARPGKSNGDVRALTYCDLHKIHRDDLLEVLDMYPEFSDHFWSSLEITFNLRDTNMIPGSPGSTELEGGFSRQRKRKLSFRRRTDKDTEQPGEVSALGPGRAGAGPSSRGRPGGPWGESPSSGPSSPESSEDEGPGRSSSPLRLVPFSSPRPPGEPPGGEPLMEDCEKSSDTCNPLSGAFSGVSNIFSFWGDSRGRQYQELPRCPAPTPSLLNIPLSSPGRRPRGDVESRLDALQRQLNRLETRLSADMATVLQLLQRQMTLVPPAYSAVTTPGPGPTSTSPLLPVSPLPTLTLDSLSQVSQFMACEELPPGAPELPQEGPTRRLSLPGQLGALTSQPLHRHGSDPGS
row,Compound,"hERG current change (%, negative = inhibition) at 10uM [%]"
1,O=C(COC(=O)CNC(=O)c1ccco1)NCCN1C(=O)CSC1=O,2.59
2,CCCS(=O)(=O)N1CCN(c2cc3c(cc2[N+](=O)[O-])n(C)c(=O)n3C)CC1,-11.1
3,COc1ccc2cc(C(=O)OC(C)C)sc(=O)c2c1OC,2.45
4,CCOC(=O)N1CCN(C(=O)c2cc(COc3ccc(OC)cc3Cl)on2)CC1,-15.5
5,Cc1cc(C)cc(NC(=O)CS(=O)(=O)c2ccccc2)c1,1.03
6,COc1ccc(NC(=O)CN2C(=O)CSC(C)C2=O)cc1 (stereo not shown),5.78
7,COc1ccc(NCc2cc3cc(OC)ccc3[nH]c2=O)cc1,-16.2
8,O=C(NNC(=O)c1cccc(Br)c1)C(=O)N1CCCCC1,-0.807
9,CC(=O)NC1=NN(C(C)=O)C(c2sccc2C)S1 (stereo not shown),15.7
10,Cc1oc2ccc(OCc3ccc(F)cc3Cl)cc2c1C(=O)O,12.1
11,COc1cccc(C(=O)OC(C)CN2CCCC2)c1.Cl (stereo not shown),1.11
12,CCOC(=O)[C@@H]1[C@H]2COc3ccccc3[C@H]2N2C(=O)N(c3cccc(F)c3)C(=O)[C@]12C,-12.5
13,Cc1ccc(Nc2nc3ccccc3s2)cc1,-6.1
14,Cc1cccc(NC(=O)c2c(C)nc3ccccn23)c1,-0.935
15,O[C@@H]1C2CCCC1[C@]1(O)CCCCC1C2 (stereo partly shown),8.35
16,COc1ccc(S(=O)(=O)N2CCCCCC2)cc1NC(=O)Cc1ccccc1,-35.7
17,Cc1cc(=O)[nH]c(SCc2cccc(Br)c2)n1,8.5
18,COc1ccc(Cl)cc1CN1CCOCC1.Cl,24.5
19,CCCCN(c1ccccc1)c1ncnc(N)c1[N+](=O)[O-],8.04
20,O=C(Nc1ccc(C(=O)N2CCN(c3ccc(F)cc3)CC2)cc1)C1=CSCCO1,-38.1

row,Compound,"hERG current change (%, negative = inhibition) at 10uM [%]"
1,O=S(=O)(/N=C(/Nc1cccc2ccccc12)c1ccccc1)c1ccc(Br)cc1,20.3
2,CCOC(=O)c1cnn(-c2ccc(C(C)C)cc2)c1NC(=O)C1CCC1,10.6
3,CC1(C)CC2CC(C)(CN2/C=C2/CCCCC2=O)C1 (stereo not shown),0.696
4,COc1cc(C#Cc2c(-c3ccccc3OC)oc3ccccc23)cc(OC)c1,10.7
5,CN(C)c1ccc(NC(=O)COC(=O)c2cc(Cl)ccc2[N+](=O)[O-])cc1,-3.65
6,Cc1cc(/C=C(\C#N)C(=O)NCc2ccco2)c(C)[nH]1,-2.85
7,Cn1c(=O)cc(OCC(=O)NCc2cccs2)c2ccccc21,-10.6
8,Cc1cc(C)c(NC(=S)NCC2CCN(C(C)c3ccccc3)C2)c(C)c1 (stereo not shown),-22.4
9,CCSC(=O)NC12CC3CC(CC(C3)C1)C2,6.27
10,Cc1cc(Cl)ccc1C(=O)C1CCCN(Cc2ccon2)C1 (stereo not shown),0.321
11,CS(=O)(=O)N(CC(=O)N1CCCC1)c1cccc(F)c1,19.7
12,O=C(O)c1cc(S(=O)(=O)N(Cc2ccccc2)c2ccc(Cl)cc2)ccc1Cl,20.8
13,COc1ccc(C2C(=O)c3ccccc3C2=O)cc1OC,7.85
14,CC(/C=N/NC(=O)Cn1nnc(N)n1)=C\c1ccc(C(C)C)cc1,7.36
15,CNC(=S)NNc1nc(N2CCOCC2)nc(N2CCOCC2)n1,14.9
16,COc1ccc(NC(=O)CN2C(=O)C(C)Oc3ccc(C)cc32)cc1 (stereo not shown),3.11
17,O=C(Nc1ccccc1Cl)O/N=C(/c1ccccc1)c1ccccn1,6.47
18,CC(C)=NNC1=NC(C)(C)Cc2ccccc21,13.4
19,N/C(=C/C(=O)c1ccccc1O)C(F)(F)F,-0.151
20,O=S1(=O)N=C(N2CCN(Cc3ccccc3)CC2)c2ccccc21,-27.3

row,Compound,"hERG current change (%, negative = inhibition) at 10uM [%]"
1,O=C(CSc1nn(-c2ccc(F)cc2)c(=S)s1)N1CCN(C(=O)c2ccco2)CC1,-75
2,Cc1cc(C)nc(SCc2nnc(SCC(=O)O)n2-c2ccccc2)n1,-27.1
3,CCC/C=C(\CCC)C(NC(=O)Cc1ccccc1)c1ccc(C(=O)OC)cc1 (stereo not shown),-24.5
4,Cl.Fc1ccccc1C(c1nnnn1Cc1ccc2c(c1)OCO2)N1CCN(Cc2ccco2)CC1 (stereo not shown),-56.4
5,CCSC1=N/C(=C\c2ccc(-c3ccccc3[N+](=O)[O-])o2)C(=O)S1,8.71
6,Cc1cc(SCc2ccccc2)nc(=O)[nH]1,19.5
7,COCCN(C)Cc1nc(C(c2ccccc2)c2ccccc2)no1,3.28
8,Cc1ccc(-n2c(-c3ccco3)nc3c(cnn3-c3ccccc3C)c2=O)cc1,15
9,CN(C(=O)C1CCN(S(=O)(=O)c2cccc3nonc23)CC1)C1CCCCC1,-12.2
10,CCOC(=O)N1CCN(CC(=O)Nc2nnc(C(F)(F)F)s2)CC1,27.4
11,COc1ccc(CN(C(=O)CSc2nnc(-c3c[nH]c4ccccc34)o2)c2ccc(F)cc2)cc1OC,-2.01
12,CCCCCCOC(=O)C(C#N)c1nc2ccccc2nc1N1CCN(CC)CC1 (stereo not shown),-70.2
13,C(=N\n1cnc2ccccc21)/c1cccnc1,-11.5
14,CCN(CC)S(=O)(=O)c1ccc(N2CCCCC2)c(NC(=O)/C(C#N)=C/c2ccc(OC)cc2)c1,8.78
15,O=C(O)CC(Cc1ccc(Cl)cc1)C(=O)NCC12CC3CC(CC(C3)C1)C2 (stereo not shown),16
16,NC(=O)C1CCN(c2nc(C3CC3)nc3c2nnn3Cc2ccccc2Cl)CC1,-3.71
17,Cc1cnc2cc([N+](=O)[O-])ccc2n1,5.75
18,CCN1CC(CN(C)Cc2cn(-c3cccc(C)c3)nc2-c2cccc(F)c2)CC1=O (stereo not shown),-31.7
